Measured values taken from PMC12820563, “FoxP3 forms a head-to-head dimer in vivo and stabilizes its multimerization on adjacent microsatellites”.
This is one part of the list.

These sequences were tested against T1, MBP-FoxP1dN (Mus musculus, UniProt P58462 326-579) (assay: PD-seq (MBP pull-down with sequencing); 20 mM Tris-HCl pH 7.5, 100 mM NaCl, 1.5 mM MgCl2, 0.4 uM protein, 0.1 uM dsDNA library, 30 min, room temperature, amylose pull-down; high values mean tight binding). Settings: protein: recombinant; tags: His6-MBP; chain copies: 2; dsDNA, one strand shown.
T1 sequence: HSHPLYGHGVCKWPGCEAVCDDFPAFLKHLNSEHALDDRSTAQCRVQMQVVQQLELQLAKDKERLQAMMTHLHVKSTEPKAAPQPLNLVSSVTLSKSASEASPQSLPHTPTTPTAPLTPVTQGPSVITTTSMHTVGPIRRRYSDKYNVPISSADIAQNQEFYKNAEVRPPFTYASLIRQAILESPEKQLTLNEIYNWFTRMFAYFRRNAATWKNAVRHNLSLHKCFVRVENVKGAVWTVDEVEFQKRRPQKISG
Procedure, shortened: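 The N-terminus-lacking fragment of mouse FoxP3 or FoxP1 carried a His6-MBP tag and was expressed in E. coli. At 0.4 µM it was incubated with 0.1 µM Klenow-filled degenerate double-stranded DNA library for 30 min at room temperature in Tris pH 7.5 buffer with NaCl and MgCl2, and complexes were caught on amylose resin, washed three times, released with proteinase K, PCR-barcoded and Illumina-sequenced. Binding is reads-per-million enrichment of pull-down over input with replicates pooled.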

| Sequence | binding signal |
| --- | --- |
| GATGATTGTTCTCCCAGCTGATGAATTCAAAGCATCGAGTAAACAAATTTTCCTAATCTTTCTGTTCAAGCGCCATCTAC | 1.04 RPM ratio (pull-down/input) |
| GATGATTGTTCTCCCAGCTGATGAATTGGCTTGGTCGAGTAAACAAATTTTCCTAATCTTTCTGTTCAAGCGCCATCTAC | 0.762 RPM ratio (pull-down/input) |
| GATGATTGTTCTCCCAGCTGATGAATTACTAACATCGAGTAAACAAATTTTCCTAATCTTTCTGTTCAAGCGCCATCTAC | 1.77 RPM ratio (pull-down/input) |
| GATGATTGTTCTCCCAGCTGATGAATTCGTGCCATCGAGTAAACAAATTTTCCTAATCTTTCTGTTCAAGCGCCATCTAC | 0.962 RPM ratio (pull-down/input) |
| GATGATTGTTCTCCCAGCTGATGAATTGCAACTATCGAGTAAACAAATTTTCCTAATCTTTCTGTTCAAGCGCCATCTAC | 1.59 RPM ratio (pull-down/input) |
| GATGATTGTTCTCCCAGCTGATGAATTCGGATGTTCGAGTAAACAAATTTTCCTAATCTTTCTGTTCAAGCGCCATCTAC | 0.864 RPM ratio (pull-down/input) |
| GATGATTGTTCTCCCAGCTGATGAATTCACTGACTCGAGTAAACAAATTTTCCTAATCTTTCTGTTCAAGCGCCATCTAC | 0.861 RPM ratio (pull-down/input) |
| GATGATTGTTCTCCCAGCTGATGAATTCCTTCTCTCGAGTAAACAAATTTTCCTAATCTTTCTGTTCAAGCGCCATCTAC | 0.736 RPM ratio (pull-down/input) |
| GATGATTGTTCTCCCAGCTGATGAATTCCGTCGTTCGAGTAAACAAATTTTCCTAATCTTTCTGTTCAAGCGCCATCTAC | 0.868 RPM ratio (pull-down/input) |
| GATGATTGTTCTCCCAGCTGATGAATTAAGCATCTCGAGTAAACAAATTTTCCTAATCTTTCTGTTCAAGCGCCATCTAC | 1.16 RPM ratio (pull-down/input) |
| GATGATTGTTCTCCCAGCTGATGAATTGGCTCGGTCGAGTAAACAAATTTTCCTAATCTTTCTGTTCAAGCGCCATCTAC | 0.79 RPM ratio (pull-down/input) |
| GATGATTGTTCTCCCAGCTGATGAATTGATAACGTCGAGTAAACAAATTTTCCTAATCTTTCTGTTCAAGCGCCATCTAC | 1.07 RPM ratio (pull-down/input) |
| GATGATTGTTCTCCCAGCTGATGAATTGGCAAAATCGAGTAAACAAATTTTCCTAATCTTTCTGTTCAAGCGCCATCTAC | 1.05 RPM ratio (pull-down/input) |
| GATGATTGTTCTCCCAGCTGATGAATTGATGTTCTCGAGTAAACAAATTTTCCTAATCTTTCTGTTCAAGCGCCATCTAC | 1.18 RPM ratio (pull-down/input) |
| GATGATTGTTCTCCCAGCTGATGAATTGACAGTATCGAGTAAACAAATTTTCCTAATCTTTCTGTTCAAGCGCCATCTAC | 1.26 RPM ratio (pull-down/input) |
| GATGATTGTTCTCCCAGCTGATGAATTTAGGCAATCGAGTAAACAAATTTTCCTAATCTTTCTGTTCAAGCGCCATCTAC | 1.15 RPM ratio (pull-down/input) |

| Sequence | binding signal |
| --- | --- |
| GATGATTGTTCTCCCAGCTGATGAATTCTCCTCCTCGAGTAAACAAATTTTCCTAATCTTTCTGTTCAAGCGCCATCTAC | 0.88 RPM ratio (pull-down/input) |
| GATGATTGTTCTCCCAGCTGATGAATTGGGCCCTTCGAGTAAACAAATTTTCCTAATCTTTCTGTTCAAGCGCCATCTAC | 0.812 RPM ratio (pull-down/input) |
| GATGATTGTTCTCCCAGCTGATGAATTTTGTTAGTCGAGTAAACAAATTTTCCTAATCTTTCTGTTCAAGCGCCATCTAC | 1.82 RPM ratio (pull-down/input) |
| GATGATTGTTCTCCCAGCTGATGAATTATAACTGTCGAGTAAACAAATTTTCCTAATCTTTCTGTTCAAGCGCCATCTAC | 0.963 RPM ratio (pull-down/input) |
| GATGATTGTTCTCCCAGCTGATGAATTAAGAAAATCGAGTAAACAAATTTTCCTAATCTTTCTGTTCAAGCGCCATCTAC | 0.996 RPM ratio (pull-down/input) |
| GATGATTGTTCTCCCAGCTGATGAATTTGCTTCTTCGAGTAAACAAATTTTCCTAATCTTTCTGTTCAAGCGCCATCTAC | 1.02 RPM ratio (pull-down/input) |
| GATGATTGTTCTCCCAGCTGATGAATTCCAATTGTCGAGTAAACAAATTTTCCTAATCTTTCTGTTCAAGCGCCATCTAC | 0.99 RPM ratio (pull-down/input) |
| GATGATTGTTCTCCCAGCTGATGAATTTGGATTATCGAGTAAACAAATTTTCCTAATCTTTCTGTTCAAGCGCCATCTAC | 1.05 RPM ratio (pull-down/input) |
| GATGATTGTTCTCCCAGCTGATGAATTCTCTTAGTCGAGTAAACAAATTTTCCTAATCTTTCTGTTCAAGCGCCATCTAC | 0.855 RPM ratio (pull-down/input) |
| GATGATTGTTCTCCCAGCTGATGAATTATGGTCCTCGAGTAAACAAATTTTCCTAATCTTTCTGTTCAAGCGCCATCTAC | 0.889 RPM ratio (pull-down/input) |
| GATGATTGTTCTCCCAGCTGATGAATTGCTTAGCTCGAGTAAACAAATTTTCCTAATCTTTCTGTTCAAGCGCCATCTAC | 1.01 RPM ratio (pull-down/input) |
| GATGATTGTTCTCCCAGCTGATGAATTCCCCTTCTCGAGTAAACAAATTTTCCTAATCTTTCTGTTCAAGCGCCATCTAC | 0.774 RPM ratio (pull-down/input) |
| GATGATTGTTCTCCCAGCTGATGAATTACAACGATCGAGTAAACAAATTTTCCTAATCTTTCTGTTCAAGCGCCATCTAC | 1.25 RPM ratio (pull-down/input) |
| GATGATTGTTCTCCCAGCTGATGAATTGCTCTCTTCGAGTAAACAAATTTTCCTAATCTTTCTGTTCAAGCGCCATCTAC | 1.01 RPM ratio (pull-down/input) |
| GATGATTGTTCTCCCAGCTGATGAATTAACTAGATCGAGTAAACAAATTTTCCTAATCTTTCTGTTCAAGCGCCATCTAC | 0.941 RPM ratio (pull-down/input) |
| GATGATTGTTCTCCCAGCTGATGAATTCAAAGCGTCGAGTAAACAAATTTTCCTAATCTTTCTGTTCAAGCGCCATCTAC | 0.872 RPM ratio (pull-down/input) |
